This is an account of results in the supplement of paper PMC10126150.

Values marked as one replicate rest on one cluster of the flow cell; about a third of the high ones do not repeat.
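Note: ATP exposure 15 min at 22 °C before imaging.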

This data set has as its system ATP. The experiment in a line: switch fluorescence ratio, 500 uM ATP over buffer (Cy3 cluster intensity, sum of 5 cycles each) (fold (ratio)); higher = stronger signal-on switching upon ATP binding; sequences stand for … in TCGTCGGCAGCGTCAGATGTGTATAAGAGACAGTTTTTTTTTTTTTTTTTTTTTTTTT…TC. The note with it: aptamer strand: ATP DNA aptamer (quencher-CACCTGGGGGAGTATTGCGGAGGAAGG + anchor), 100 nM annealed; ATP concentration: 500 uM; one replicate. Put shortly: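 Per cluster, summed Cy3 intensity from the target cycles was divided by that from the buffer cycles to give the fluorescence ratio, then averaged per switch-domain sequence. Clusters outside 100-1000 RFU were excluded. The Cy3-labelled switching-strand clusters, on a modified Illumina MiSeq flow-cell, were annealed to 100 nM quencher-labelled ATP aptamer and imaged in selection buffer, then after 15 min with 500 uM ATP at 22 °C, for five cycles with NaOH stripping and re-annealing between them.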
Consider CCTTGGAGAC, for which the switch fluorescence ratio is 1.55.

For the sequence TAACGTGCTC, the switch fluorescence ratio amounted to 1.01.

For AGGACCTCTT, the switch fluorescence ratio was determined as 0.95.

As to GCCAATTGGG, the switch fluorescence ratio amounted to 0.978.

TACGCTGGAT: the switch fluorescence ratio is 1.09.

As to TGTGTGCTCC, the switch fluorescence ratio was found to be 0.997.

In the case of AAGTAGTACG, the switch fluorescence ratio worked out at 0.911.

TACTCTAGT: the switch fluorescence ratio worked out at 1.06.

Regarding CTAGATCGTT, the switch fluorescence ratio turned out to be 1.01.

For the sequence GTCATCGCTT, the switch fluorescence ratio was determined as 0.967.

TCCACGCCGG: the switch fluorescence ratio came to 1.05.

As to ATCATAATAT, the switch fluorescence ratio worked out at 0.964.

On to GGCGCAAACC, for which the switch fluorescence ratio was 1.98.

Regarding CCGGCGGCCG, the switch fluorescence ratio was found to be 1.03.

Take CTAGTGAAGC: the switch fluorescence ratio was determined as 1.

Take TCACAGAGTA: the switch fluorescence ratio stood at 0.991.

As to GAAGAGCCCG, the switch fluorescence ratio was 1.02.

Regarding TAAGTCATGT, the switch fluorescence ratio was determined as 0.946.

ACGTGGGACG: the switch fluorescence ratio is 0.922.

Regarding GACTGAATCT, the switch fluorescence ratio was 1.

Regarding TTATGTGCTT, the switch fluorescence ratio stood at 0.98.

As to GCGTCTTTTT, the switch fluorescence ratio came to 0.937.

On to CCTCCTTTAT, for which the switch fluorescence ratio was 2.46.

As for GGGATTAGGT, the switch fluorescence ratio was found to be 1.02.

Regarding GGGGATCTCG, the switch fluorescence ratio is 1.01.

Take CTATGTTTGA: the switch fluorescence ratio amounted to 1.02.

For CACCGCTGGG, the switch fluorescence ratio was 1.08.

On to CTGTCTTGGC, for which the switch fluorescence ratio is 0.949.

For TCGACGGAAA, the switch fluorescence ratio worked out at 1.17.

TATCCGAGGA: the switch fluorescence ratio worked out at 0.992.

Take TCGAGGGCTA: the switch fluorescence ratio came to 1.17.

Regarding CTTCGATCGG, the switch fluorescence ratio is 1.

Consider GGCAGTAGG, for which the switch fluorescence ratio came out at 0.984.

Regarding CAGGGTGTTT, the switch fluorescence ratio amounted to 1.

In the case of TGCTCAATCG, the switch fluorescence ratio is 1.02.

Regarding TATTAAGGAC, the switch fluorescence ratio came out at 1.

For AATTTCACTC, the switch fluorescence ratio was 1.06.

In the case of CCGGGTTTA, the switch fluorescence ratio worked out at 0.996.

For the sequence ACATGGATA, the switch fluorescence ratio was found to be 0.989.

GCAGAAGGGG: the switch fluorescence ratio amounted to 1.

Take ATAGATCATT: the switch fluorescence ratio is 0.999.

CCCCACCAGA: the switch fluorescence ratio was 1.07.

With GGCAACAGCA, the switch fluorescence ratio stood at 1.02.

As for AGCGGTCGG, the switch fluorescence ratio turned out to be 0.993.

With CGTATTGTAG, the switch fluorescence ratio was determined as 1.

As to GAACGGCAAG, the switch fluorescence ratio came to 1.08.

As to CCTTTTTCGG, the switch fluorescence ratio was determined as 1.05.

Consider AGCCGAGTAT, for which the switch fluorescence ratio was 0.949.

For the sequence TTGTGCCACT, the switch fluorescence ratio is 0.95.

Regarding TTCTCAGTGC, the switch fluorescence ratio came to 1.52.

On to GGTTAATGTA, for which the switch fluorescence ratio is 0.922.

For CAGACCTTTG, the switch fluorescence ratio was found to be 1.01.

On to ATTTGATTAC, for which the switch fluorescence ratio amounted to 1.

For the sequence ACTAGATCGC, the switch fluorescence ratio came to 1.02.

Take AGGTGTACTA: the switch fluorescence ratio is 1.05.

On to CGGTTAGGCC, for which the switch fluorescence ratio was determined as 0.947.

Consider AGAAGTGCAG, for which the switch fluorescence ratio is 1.01.

For CATAGGATCA, the switch fluorescence ratio was determined as 1.02.

Turning to ATCAGGCGA, the switch fluorescence ratio was determined as 1.04.

As to TCAACGTCGA, the switch fluorescence ratio worked out at 1.07.

With TACTTGGACC, the switch fluorescence ratio was 1.08.

As for AGCCCTTTT, the switch fluorescence ratio stood at 0.988.

AGCGTAAGCT: the switch fluorescence ratio stood at 0.994.

On to TAAGTTCTGT, for which the switch fluorescence ratio turned out to be 0.971.

As for TATCTTGAGA, the switch fluorescence ratio worked out at 0.971.

Take GTCTGGAGTT: the switch fluorescence ratio is 1.04.

Consider ACAACCCGCT, for which the switch fluorescence ratio amounted to 1.13.

Consider CGACACGAAT, for which the switch fluorescence ratio came to 1.03.

As to GCGAAGGTGC, the switch fluorescence ratio came to 1.5.

As to AAGAATCGTG, the switch fluorescence ratio came to 1.

For GTGGTACCTG, the switch fluorescence ratio is 1.02.

Regarding TAGATTCCAG, the switch fluorescence ratio worked out at 0.995.

With TCTGGGGA, the switch fluorescence ratio stood at 1.12.

For the sequence GTAATAGCGG, the switch fluorescence ratio was determined as 1.01.

In the case of CTTGCGTGAT, the switch fluorescence ratio was found to be 1.05.

As to TATGGGAAAA, the switch fluorescence ratio was found to be 0.937.

For ATAAGGTTCG, the switch fluorescence ratio worked out at 1.03.

In the case of AAAAAGCCAT, the switch fluorescence ratio turned out to be 1.14.

Take GATATCTTCT: the switch fluorescence ratio amounted to 1.02.

On to ACATGGATTA, for which the switch fluorescence ratio is 1.02.

For the sequence TAGCCTCATG, the switch fluorescence ratio worked out at 0.972.

As to TGGAGAGATG, the switch fluorescence ratio was found to be 1.04.

For TACTGTATAG, the switch fluorescence ratio stood at 1.07.

GACTCACGTT: the switch fluorescence ratio is 1.41.

Take GCTTGCGTAG: the switch fluorescence ratio turned out to be 1.05.

Consider TTACTTACGC, for which the switch fluorescence ratio was 1.33.

For the sequence CATTTTTCCA, the switch fluorescence ratio came to 0.981.

Turning to CCGCGCTCAG, the switch fluorescence ratio came to 1.77.

Regarding ACTTTTGGAT, the switch fluorescence ratio worked out at 1.01.

TGCGTATGTC: the switch fluorescence ratio is 1.

For ACCCAATTAA, the switch fluorescence ratio was 1.03.

Turning to TTGGGTCACG, the switch fluorescence ratio is 0.98.

With TCAATCTATT, the switch fluorescence ratio turned out to be 1.01.

Regarding TGTGTTGCAA, the switch fluorescence ratio came to 1.13.

On to TGGTCGCCCT, for which the switch fluorescence ratio was 1.01.

CTGATGGAAG: the switch fluorescence ratio was 1.01.

As to CCTTCTTACA, the switch fluorescence ratio came out at 1.07.

As for GTCGGATGAT, the switch fluorescence ratio was determined as 0.989.

Take CGGAAGGGTC: the switch fluorescence ratio came out at 0.972.

Regarding GGTTAAAGGC, the switch fluorescence ratio is 1.03.

On to GTGCGTTGCT, for which the switch fluorescence ratio came out at 0.983.

For the sequence GGTGTAATGA, the switch fluorescence ratio was found to be 1.01.

Turning to TATCTTCTTC, the switch fluorescence ratio amounted to 1.05.

With TGGGATCTTG, the switch fluorescence ratio came to 0.995.

As for TCAGGGTAGA, the switch fluorescence ratio was determined as 0.992.

As for AGGCAGATAT, the switch fluorescence ratio is 0.982.

As for AATTAAGTTG, the switch fluorescence ratio was found to be 0.984.

Regarding TCGGAGTAGT, the switch fluorescence ratio amounted to 1.22.

In the case of TTGGTTTCCG, the switch fluorescence ratio was determined as 1.02.

As to AGTTGATTAG, the switch fluorescence ratio is 1.01.

Regarding TCGAATATCG, the switch fluorescence ratio is 0.966.

For the sequence CAAACATGGA, the switch fluorescence ratio is 0.988.

As to GGTTAGAC, the switch fluorescence ratio worked out at 1.01.

Consider TGGGGCTAGA, for which the switch fluorescence ratio is 1.01.

For the sequence ATGCGTCCCA, the switch fluorescence ratio was found to be 0.985.

Turning to TCCGATCCCA, the switch fluorescence ratio was 1.04.

On to TAAGTCAGGC, for which the switch fluorescence ratio amounted to 0.99.

As to GCCAGTTGAG, the switch fluorescence ratio was found to be 0.987.

As for GTCCCCGAAT, the switch fluorescence ratio is 1.

Take GAACGTGGCT: the switch fluorescence ratio worked out at 1.01.
